Measured values reported in the supplement of paper PMC3724861.
This is one part of the list.

The sequences below were run on T1, Caupolican (Caup) homeodomain DNA-binding domain (assay: PBM E-score (8-mer, recovered from the published 9-mer minima) (E-score (dimensionless, -0.5 to 0.5)); Drosophila protein; higher = stronger relative binding preference, active = 0.31 or more).
T1 sequence: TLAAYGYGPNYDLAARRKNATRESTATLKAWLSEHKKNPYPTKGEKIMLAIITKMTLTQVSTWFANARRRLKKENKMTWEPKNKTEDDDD
Method: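 Protein binding microarray (PBM): in vitro transcribed/translated Caupolican (Caup) homeodomain DNA-binding domain (residues 214-303) applied at 100 nM to a universal 8-mer PBM array (Agilent AMADID 015681). The 8-mer enrichment score (E-score, range -0.5 to 0.5) was computed, and each 9-mer score is the minimum E-score of its two constituent 8-mers. The E-score is the same for a 9-mer and its reverse complement; 0.31 is the stated binding threshold.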

PBM E-score, ≥ 0.109:
CGTGCACG

PBM E-score, inactive:
ATAATAGA 0.13, CGACCACC -0.128, ATCCGCGG -0.111, GTGACCCA -0.128, CTACCACC -0.0357, AATTGAAT 0.12, CCACCACC -0.135, ACTCAAGC 0.0448, GATCGCAC 0.0699, CTGGACCC -0.286, ACGATCTA 0.0896, CGGTAAAG 0.0318, GACAGCAA 0.0496, ACTGGTCG -0.00017, AGGGCGAG -0.194, AGTAATCC 0.187, ACGAGGGC -0.125, GCCTCATA -0.118, ACGGATGG -0.0652, CATTGCCC -0.0987, CCCTGATA 0.0111, CGTCGATA 0.0346, ATCAAAAC 0.0898, GACTATCA 0.00646, CAGTTGGA -0.0504, CTGATTCA 0.0761, TCTCACAA 0.048, AAAGGCTC -0.138, AATATGCA 0.0205, AATGAGCT 0.0203, GATGTAGC 0.166, GGAAGTCC -0.184, ATCAGACC -0.0214, AGGAAAGG -0.0732, ACACGAAG 0.174, TTAAGGAA -0.0151, CTAGATCA 0.0404, ACCGTGAG -0.116, GATGCAAC 0.0677, CTTGCTGC -0.0454, CGTTCAAC 0.0706, CGCAGTAC -0.0308, GACGGGCA -0.108, AGCTCATC -0.167, AACTCGAA -0.05, CATGGCTA 0.0608, GCTTATTA 0.0892, ACGTTATG 0.174, CCTAACAG -0.0355, TCGCCTAA -0.0379, GGACAGAA 0.0584, ATGAGCGC -0.117, CGCTCTTC -0.182, AAAGATTA 0.0965, AAACTAGT 0.19, GATTCCGA -0.0693, CGTCGCGC -0.187, GGACGATA 0.00416

PBM E-score, ≥ 0.0427:
GAAGAGTC

PBM E-score, active:
ATGTTAAA 0.353

PBM E-score, ≥ 0.0975:
ATCGCAAC
